Measurements from article PMC10726135.
Some of the results follow. At the low end of the ranking the order means little. Measured with an extract: partners may take part in the binding.

The sequences below were run against T1, HNF4alpha8 (COS-7 nuclear extract) (UniProt P41235-5) (assay: protein-binding microarray). Conditions: COS-7 nuclear extract on double-stranded Agilent 4x180k PBM; binding buffer, salt, pH and temperature not given; high values mean tight binding; double strand, one strand shown; sequences stand for … in …GCCTAGGGAGATTAGAGTATCGGTCGA.
T1 sequence: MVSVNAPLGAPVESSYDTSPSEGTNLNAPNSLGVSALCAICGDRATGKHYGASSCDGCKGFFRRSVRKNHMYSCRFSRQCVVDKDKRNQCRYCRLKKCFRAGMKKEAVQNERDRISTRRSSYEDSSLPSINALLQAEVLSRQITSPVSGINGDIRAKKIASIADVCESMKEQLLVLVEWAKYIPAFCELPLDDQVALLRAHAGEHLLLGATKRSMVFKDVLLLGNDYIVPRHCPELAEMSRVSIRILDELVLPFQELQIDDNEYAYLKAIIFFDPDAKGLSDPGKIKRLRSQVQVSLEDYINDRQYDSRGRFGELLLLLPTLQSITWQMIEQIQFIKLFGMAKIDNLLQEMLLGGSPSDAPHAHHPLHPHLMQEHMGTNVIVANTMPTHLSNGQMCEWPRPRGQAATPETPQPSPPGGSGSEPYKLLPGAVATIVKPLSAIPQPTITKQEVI
For CTGAATAAAACAAACTCATTTTGATCTTTG, the binding signal (log2 normalized intensity) was 2.87. For CAGAGCAAAGGGCTTATTTTAGGAGCCTCC, the binding signal (log2 normalized intensity) was -1.3. Sequence CAGAGAAGCCGTGGTGCTGTCCAAGGTGCT has a binding signal (log2 normalized intensity) of -1.22. Work on CCTGCTGCTGGCTGGCGGCCTTTGGGTCCC yielded a binding signal (log2 normalized intensity) of 1.31. Work on TCAGCCATCTCCCCAGGGAGGCCTGGGCCC yielded a binding signal (log2 normalized intensity) of -1.31. For AGGGCAAAGGTCAGAGGCTGATTTCTCAGG, the binding signal (log2 normalized intensity) was 5.36. AACTTGGTTACAGGACCAGGTGTAGATAAA was tested, and the binding signal (log2 normalized intensity) was 0.419. AGAAGACCAAACAACCAGGGAGATGTGAGC gave a binding signal (log2 normalized intensity) of -1.43. With CAGTGCAAACACACAATATTGACATTCCAG the binding signal (log2 normalized intensity) was -1.01. CGGCGGAGCCTCCGGCCTGAGGCAGGATCA gave a binding signal (log2 normalized intensity) of -1.3. In the case of AAGACTAACCTTTGACCATCCACGGGTCCA, the binding signal (log2 normalized intensity) is reported as 5.41. Sequence TACTGGTTGAATGGACGGACAGGTAACGTA has a binding signal (log2 normalized intensity) of 0.899. TGACCCCTCCCCTCCCCCTTGGTGTTTAAA gave a binding signal (log2 normalized intensity) of 5.48. TGTGTGTAACATTTGACTTCCCCAAAACTT gave a binding signal (log2 normalized intensity) of 2.5. With ATCTTTTTAGCAACTGGTATGTTAGATTAG the binding signal (log2 normalized intensity) was 1.09. TGTGCTAGATACTGGAGATATGTTGCTGGA was tested, and the binding signal (log2 normalized intensity) was 0.67. In the case of GACAAATCTCACTGATAGTCTCCTATCAAG, the binding signal (log2 normalized intensity) is reported as -1.24. For GTCCTGCACATGAATGATCAAAGGTTGGTT, the binding signal (log2 normalized intensity) was 4.3. For TAACATTAATGGAAATGCCTAGGATACCTA, the binding signal (log2 normalized intensity) was -1.19. CAGCTGTTATGAGTCTGTTGTCTAACATTT showed a binding signal (log2 normalized intensity) of 0.597. With GTGACTTGAAAGGGACTTAGAATCGAATTG the binding signal (log2 normalized intensity) was -0.0805. Work on TAAGGGAGATGAAAGGGGCCTCAGAGAAAG yielded a binding signal (log2 normalized intensity) of -1.29. ACTTAAAAAAATCTAGTTTAGGATTTTAGC was tested, and the binding signal (log2 normalized intensity) was -0.542. For ATTCTCTAGAATCTAGAAAATGCAAGGAAA, the binding signal (log2 normalized intensity) was -1.17. In the case of TCTTTGAATGGACTCTGAGACCTGTGATGG, the binding signal (log2 normalized intensity) is reported as 3.61. CAGGAGCAGAAGCAGGCCTCGGGCCTGCGA gave a binding signal (log2 normalized intensity) of -1.32. In the case of GCAGCCGCCGGAGAATTAAACTGCCGCGCC, the binding signal (log2 normalized intensity) is reported as -1.29. CAGCAACCGCCTACCTTTGGACTTCTCATT showed a binding signal (log2 normalized intensity) of 3.88. In the case of TTGGACTCTGCCACTGGTTTGCACACACCA, the binding signal (log2 normalized intensity) is reported as 1.94. ATTTACAAACAAATGCAAAACTGGCAAAAC gave a binding signal (log2 normalized intensity) of -1.37. TACTTTTCAGGAACTGTTCTTTGACTCAGT was tested, and the binding signal (log2 normalized intensity) was 1.58. Sequence CCAGGTCCACAGTGCACATTCCAGAGAAAT has a binding signal (log2 normalized intensity) of -1.36. In the case of CTGTGGGGAGGTTATCTCGGGGATGGCATG, the binding signal (log2 normalized intensity) is reported as 0.591. With CCTAGCCCTCTTTCAAAGACAAATATCGAC the binding signal (log2 normalized intensity) was -0.514. With AGCAGCTACATAAGGGTAGAGACCTTTGTT the binding signal (log2 normalized intensity) was 2.77. ATGCAGCTAAAAGCAGCATCCCTGATAAAC gave a binding signal (log2 normalized intensity) of -1.38. Work on CTTACCTGCCAAATATTGGGCAATGCTAGG yielded a binding signal (log2 normalized intensity) of -1.4. GGCTTCACAATTCCTAGCAATTCAAATTCT was tested, and the binding signal (log2 normalized intensity) was -1.05. GAGCCTGGACACACGAATAATGGAGCTGAT gave a binding signal (log2 normalized intensity) of -1.14. CAGGCCCTTCTACATGAGGAGTGAGAACAG was tested, and the binding signal (log2 normalized intensity) was -1.31. GGATTAAGTGCATACTCAAAGAATTTAACA was tested, and the binding signal (log2 normalized intensity) was -1.5. With CTTATGCATAGATGTTTAGCTATCAGTGTT the binding signal (log2 normalized intensity) was 0.941. TGTAGATAAACTGGAAAGGGCTTCAGAGTC gave a binding signal (log2 normalized intensity) of -1.28. TCCAAAGGAGTGGTCCTGCTCAAAGGGGAA gave a binding signal (log2 normalized intensity) of -0.986. With GTTTGCACAAAGGGTTATGGGAAGTGGGGT the binding signal (log2 normalized intensity) was -0.134. For TGCCAAGTGATAAGGAACCTAGGAAATCAA, the binding signal (log2 normalized intensity) was -0.864. For ATTCAAAGCAGAGGTGACCCTTGCACTCAT, the binding signal (log2 normalized intensity) was 6.82. For GTCTGCTATTATCATCTCTTGTCTGGAATA, the binding signal (log2 normalized intensity) was 0.938. For GAGAAGTTGCTCTTTACACCATTGCAAGGA, the binding signal (log2 normalized intensity) was -0.0322. Sequence AGCAATACATTGAACTTTGAACACCTCTTC has a binding signal (log2 normalized intensity) of 6.54. GTGGGAGGATCGCTTGAGCCTGGGAGGCAA was tested, and the binding signal (log2 normalized intensity) was -1.33. In the case of CTTTGCCCTCCCTAAATCCAGAGGTATTTG, the binding signal (log2 normalized intensity) is reported as 2.04. GCCAGCAACGGTGAGTCAAGCACTTCTCAC gave a binding signal (log2 normalized intensity) of -1.3. For GTTTTTCTTCAAGGAGGTGAACTTTGAGAC, the binding signal (log2 normalized intensity) was 6.87. In the case of CAAAACCAGTTTTTCCAGCAGCGGATCCAA, the binding signal (log2 normalized intensity) is reported as -1.29. TTTCTCAGCCCCATCCCCCAATACACACAC gave a binding signal (log2 normalized intensity) of 5.03. Sequence CTTAAATGAGATAAGATGAAGCTCTCAGAA has a binding signal (log2 normalized intensity) of -1.2. AACATGGATTTTGGAGCCAAACAGGTGTGG showed a binding signal (log2 normalized intensity) of -0.156. AGAACTGTTAACTTTGTACTCAATTTGGAT was tested, and the binding signal (log2 normalized intensity) was 1.76. With AAGGACAAAGGTCAACAAACGCCCCTTGGA the binding signal (log2 normalized intensity) was 5.61. GTAGGCGTATGCTGTACAGATCTCTACGAC gave a binding signal (log2 normalized intensity) of -1.36. In the case of AATCTCTCAAGTTGCCCGCTTGGCCCTCTT, the binding signal (log2 normalized intensity) is reported as 1.65. With TAAACCCGATCCTTACTATTAGGTCTTTGA the binding signal (log2 normalized intensity) was 1.45. In the case of AACTGTCACAAGAAAGGCAGAAAACTCAGA, the binding signal (log2 normalized intensity) is reported as -1.07. CAGTATTAATGTCAAACTGATCAGAAGTGG gave a binding signal (log2 normalized intensity) of 1.37. Sequence AGCACATCACACAGGCATATTTGGTTAGCT has a binding signal (log2 normalized intensity) of -1.31. Work on GTTGGGCAAGACTCGTGAAAAGAGTGATCT yielded a binding signal (log2 normalized intensity) of 0.26. Work on CCTTAAGAGCAGTCTGCTCAAGTCTTTTAG yielded a binding signal (log2 normalized intensity) of -1.36. GATAAGAACTGCAAGGCTAGAGATTCTCCC showed a binding signal (log2 normalized intensity) of -1.22. AAGGGAACCCTAATCCACATGCTATTATTT was tested, and the binding signal (log2 normalized intensity) was -1.27. With TTGCTTATAGCTCAAAGTCCACCAACTCTG the binding signal (log2 normalized intensity) was 4.87. Sequence CAGAGACCTTTGCTCACGTTTTCCTGCTGA has a binding signal (log2 normalized intensity) of 1.71. For GTAATTAATCTGATCGCCCTCCCCCAGAGA, the binding signal (log2 normalized intensity) was 5.03. In the case of TGATTAGAACATTAAGTCCAAATGCTGGTT, the binding signal (log2 normalized intensity) is reported as 1.39. For TTAGACAGTGCTTCCAAAGGACAGGGTTTC, the binding signal (log2 normalized intensity) was 0.273. CCTTTGCCCTCCAAACTGAGAGATTTTTTC showed a binding signal (log2 normalized intensity) of 1.05. In the case of TTTCTGGGATTTGTACAAGTGATTGGATCT, the binding signal (log2 normalized intensity) is reported as 1.7. GAGCTTTTACCTCAAATAAAGGTCAGAGTC gave a binding signal (log2 normalized intensity) of 2.66. In the case of ATCTATTATTAGGTACAAACATACTTAGGA, the binding signal (log2 normalized intensity) is reported as 0.835. In the case of TCCTGTAGAATGACCCCCTGGGCTCCAATC, the binding signal (log2 normalized intensity) is reported as 3.77. TCTCTCTCTCTCGTTTTTTTTTTCCCTGAG showed a binding signal (log2 normalized intensity) of 1.65. Sequence ATGATGGCCAGGGAGTACACCCCTCACTCC has a binding signal (log2 normalized intensity) of 0.221. GGCATTATTAGCCACAACTGAGTATTTAGC showed a binding signal (log2 normalized intensity) of -1.37. CAAATACCATCCCCAGAGCCGGAGCACCAC showed a binding signal (log2 normalized intensity) of 1.5. Sequence GATAAGAGGCAGTCCTGGCTTGGCCACCTA has a binding signal (log2 normalized intensity) of -1.35. With TTCCTGCACCCGGGCAGCCTGTGGCCAGGC the binding signal (log2 normalized intensity) was -1.36. CTTTTTGATCTTGTCACATTTCAAAAGCTG gave a binding signal (log2 normalized intensity) of -1.34. Sequence TGCCTGGAGAGCTAGTAAGGAGCTGAGTCA has a binding signal (log2 normalized intensity) of -1.4. With TCCTTGGCTCTCCCCACTTACTTCCTGATA the binding signal (log2 normalized intensity) was 0.269. GATTACTTGGCACTTAGCACAAGTGACTAT was tested, and the binding signal (log2 normalized intensity) was -1.29. In the case of ATCTGCAGGGCAGCAGACTCAGAAAAATAT, the binding signal (log2 normalized intensity) is reported as -1.33. Sequence CCACTCTTTTTTAGACTTTGACCTCCATAT has a binding signal (log2 normalized intensity) of 8.93. Sequence TGAATTTAACCTTTGCTCTCTGAAATGAAG has a binding signal (log2 normalized intensity) of 5.77.
